According to the supplement of paper PMC3334620:
The full ranking holds about 33,000 sequences; the median of “E-score (-0.5 to 0.5)” is about -0.013, and the highest 2% start at about 0.3. This is one part of the list.

molecular target: T1, Msn1 (UniProt P22148); assay: PBM E-score (8-mer binding enrichment) (E-score (-0.5 to 0.5)); higher = stronger / more preferred TF binding; most listed sequences are background and not binding sites; settings: protein concentration: 200 nM; construct: GST-full length
T1 sequence: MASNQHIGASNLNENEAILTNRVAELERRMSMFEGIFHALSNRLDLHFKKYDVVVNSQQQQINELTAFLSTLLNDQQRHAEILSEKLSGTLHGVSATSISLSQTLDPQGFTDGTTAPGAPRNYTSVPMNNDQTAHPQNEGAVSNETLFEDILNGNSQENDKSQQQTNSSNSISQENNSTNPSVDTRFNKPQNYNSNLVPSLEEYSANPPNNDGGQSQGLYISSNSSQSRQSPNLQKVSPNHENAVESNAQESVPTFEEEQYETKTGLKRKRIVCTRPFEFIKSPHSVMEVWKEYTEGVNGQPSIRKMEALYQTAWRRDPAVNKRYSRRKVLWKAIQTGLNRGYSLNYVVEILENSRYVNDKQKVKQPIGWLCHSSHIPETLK
Summary of the method: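 Full-length yeast transcription factors or their DNA-binding domains, GST-tagged and expressed with PURExpress, were applied at about 100-200 nM to universal all-10-mer Agilent arrays. These arrays had been made double-stranded by primer extension on fresh or once-stripped slides. Detection used fluorescent anti-GST, normalisation used masliner, and E-scores for ungapped eight-base words pooled with reverse complements came from the Universal PBM Analysis Suite.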

Row | Sequence | PBM E-score
1 | CCTCCTTC | -0.359
2 | CCGACTCC | 0.0391
3 | GGTAATCA | 0.0578
4 | TAAAAGGA | 0.156
5 | CTTGCGTC | -0.0529
6 | GACGTGGA | 0.0663
7 | AAGTAGCC | -0.0783
8 | GCGAATTA | 0.0826
9 | AGAGAGAC | -0.0618
10 | AACATTTC | 0.0651
11 | ACAATTGG | 0.105
12 | GAGCTTGC | -0.243
13 | GACGCGCA | 0.0562
14 | AATGACGC | 0.0958
15 | AGTGAGCA | -0.138
16 | ATCGAGAG | -0.0865
17 | TATCATAA | 0.0748
18 | CGAACCGC | 0.0556
19 | CGACGCGC | 0.166
20 | AGGGGTAA | -0.205
21 | AACACCGG | 0.115
22 | CGAGGCGC | -0.0872
23 | AACCGGGG | -0.168
24 | CCTGTAGC | -0.205

Row | Sequence | PBM E-score
25 | CTCTGGGC | -0.187
26 | GCCTTAAC | -0.117
27 | AGAGCGTA | -0.221
28 | CTTGTGCA | -0.00054
29 | ACCCTACC | -0.0991
30 | TACGATGA | -0.0286
31 | CCACTGAC | -0.0384
32 | GATATCAC | -0.0842
33 | CGTTGCAC | -0.0751
34 | AATTCGAC | -0.242
35 | ACAGTTCG | 0.0949
36 | CGCACCGA | -0.0211
37 | CCGTTTCG | -0.0884
38 | ACAAGCTC | 0.0907
39 | CGAAGGAC | 0.106
40 | CACTGTCG | -0.198
41 | GGCCAGCC | -0.275
42 | AATCAGAA | -0.0428
43 | GGACTGAC | -0.0899
44 | ATCTCCAT | 0.0448
45 | AATTTGAG | 0.017
46 | ATTTATTA | 0.132
47 | TTTGAAAA | 0.222
48 | GACTAGTA | -0.0872

Row | Sequence | PBM E-score
49 | ACTATTTC | 0.101
50 | ACCCCCCG | -0.207
51 | TCCATCCA | -0.00245
52 | TCCTTCAA | -0.0355
53 | ACGATGTG | 0.0996
54 | CATTCTCC | 0.0977
55 | AGCTACGA | -0.11
56 | AAGGCGGG | -0.293
57 | CTCAGCCC | -0.302
58 | GTCGCTCA | -0.0121
59 | TCTGTACA | 0.172
60 | CCTAGTCC | -0.0342
61 | AGATCTGA | 0.0378
62 | ACGCGTCG | 0.203
63 | CGATTTTC | 0.0625
64 | CGCGTGTA | 0.114
65 | CCTCTGCG | -0.147
66 | AGTATTGA | 0.0166
67 | AAACGACA | 0.178
68 | ACGTAAAG | 0.0462
69 | GATAGATA | 0.0784
70 | GATCAGGA | -0.11
71 | ACAGGACT | -0.0485
72 | AAGATGGT | -0.068

Row | Sequence | PBM E-score
73 | GATTGCAC | 0.0495
74 | CGAATTGA | 0.0333
75 | TGTGAAAA | 0.139
76 | AAGGAACT | 0.0303
77 | ACATATAG | 0.267
78 | CTCCACCC | -0.277
79 | GTCAGGGA | -0.0927
80 | TACGGATA | 0.0192
81 | AGCATAAC | -0.0992
82 | GCTCGGTA | -0.153
83 | ATTGACTC | 0.0316
84 | ATGTTCGA | 0.0589
85 | CAAAATAA | 0.113
86 | ACGTCCTC | 0.0204
87 | AGATACGC | -0.167
88 | GATGACCA | 0.0847
89 | ATTCTACC | 0.0219
90 | CACATATC | 0.0551
91 | ATCTGAGA | 0.0879
92 | ATACAAGC | -0.0673
93 | CGACTGGC | -0.241
94 | ACATGTGA | 0.113
95 | CAGGGTGG | -0.352
96 | CTGTTGAC | 0.0769

Row | Sequence | PBM E-score
97 | ACTTTATA | 0.158
98 | CGACCTAG | 0.0563
99 | AATACACC | 0.0912
100 | AGGAATGG | -0.109
101 | GATCATAC | 0.0678
102 | AGACTTCC | -0.108
103 | CTTTGTCA | 0.311
104 | ACCGCAAG | -0.0142
105 | ATAACGTC | 0.0296
106 | GCTTGAAA | 0.0109
107 | GCGCTTCC | -0.0102
108 | GCCCCAAA | -0.137
109 | GGCAGACA | 0.079
110 | TCGCTTCA | 0.106
111 | TCTCTACA | -0.0107
112 | GCGGTCCC | -0.188
113 | ATGAAAGC | 0.12
114 | AGGCACGA | -0.126
115 | TTAGGGAA | -0.0343
116 | CAGAGAAC | -0.146
117 | CCTCGATA | 0.0693
118 | GCTTCCTA | -0.0319
119 | AACAAACG | 0.0707
120 | AGTCTGGA | 0.193

Row | Sequence | PBM E-score
121 | GACTGCCA | 0.0949
122 | GCCGCCCA | -0.112
123 | ACGTGCCC | -0.0491
124 | AGTCAAAG | -0.147
125 | ACGCACAA | 0.0214
126 | AATGAAGG | -0.0295
127 | CGGATTAC | -0.0248
128 | CACGCCTA | -0.044
129 | CCTAGAGC | -0.184
130 | GGCTTTCA | 0.0705
131 | CGTTGGAG | -0.0599
132 | GTTTCACA | 0.0254
133 | CAGATTTC | -0.0498
134 | ACAGTTTA | 0.0633
135 | GGGGATAC | -0.121
136 | CAAGTCAC | -0.0288
137 | GAGCACCC | -0.291
138 | CGCAACGC | 0.0454
139 | GCGCACAC | 0.0127
140 | CTGTAAGA | 0.025
141 | CCGTCTAA | -0.0789
142 | AAGGCGAG | -0.169
143 | GTTGAAAA | 0.0587
